# Reference: PubChem BioAssay AID1508624 (National Center for Advancing Translational Sciences (NCATS), 2021)
# Out of some 48,000 compounds screened, about 120 (0.25%) were called active. Roughly 4% stayed inconclusive and do not appear here. Calls follow the shape of the dose curve; as a rule, active = well fitted activation curve with a large enough effect; inconclusive = small, poorly fitted or top-dose-only effect, or another doubt; inactive = no such curve, though single readings can be large or run the other way. Some of the results follow.
# Assay: Primary qHTS for Identification of Small Molecule Activators of Huntingtin-Antisense Promoter Activity; also: nearly all actives have a fitted effect of over 55% in size
# Conditions: HEK293 HTT-AS promoter firefly luciferase reporter (activity 0% = vehicle and -100% = no light), 24 h; series mostly up to 57.5 µM; activity change, positive = activation: at the top concentration
# Outline: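 Firefly luciferase signal from promoter-reporter HEK293 cells was scaled between vehicle (0%) and zero RLU (-100%). Compounds were tested at final concentrations of up to 57.5 uM over 24 h at 37 degrees C. PTC124 at 50 uM final served as control inhibitor.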
row,SMILES,"activity change, positive = activation"
1,COc1ccc(C(=O)Nc2c(C(=O)c3ccccc3)oc3ccccc23)cc1,inactive: 2.58%
2,Cn1c(=O)c(=O)n(C)c2cc(N3CCOCC3)c(NS(=O)(=O)c3ccc(F)c(Cl)c3)cc21,inactive: -10.2%
3,COc1ccc(NC(=O)c2cc3cc(C)ccc3n2C)cc1,inactive: 7.75%
4,Cc1cccc(-n2ccnc2SCC(=O)Nc2nc3ccccc3s2)c1,inactive: 4.22%
5,CCOC(=O)C(=O)Nc1c(C(=O)Nc2cccc(F)c2)oc2ccccc12,inactive: 10.3%
6,COc1ccccc1N1CCN(c2nc3c(S(=O)(=O)c4ccc(C)c(C)c4)nnn3c3ccc(Cl)cc23)CC1,inactive: 3.29%
7,CCOC(=O)c1ccc(NS(=O)(=O)c2cc(Br)cc3c2N(C(C)=O)C(C)C3)cc1 (configuration not stated),inactive: -51.9%
8,CCN(CCCNC(=O)c1nn(-c2ccc(OC)c(Cl)c2)c(=O)c2c1c1ccccc1n2C)c1cccc(C)c1,inactive: -17.1%
9,Cc1cccc(-c2nc(SCC(=O)NCc3ccco3)c3c(=O)n(C)c(=O)n(C)c3n2)c1,inactive: 1.64%
10,Cc1ccc(Cn2c(CNS(=O)(=O)c3ccc(Cl)s3)nc3cccnc32)cc1,inactive: -5.71%
11,Cc1cc2[nH]c(=O)c(=O)[nH]c2cc1S(=O)(=O)N1CCN(c2cccc(C)c2C)CC1,inactive: -10.9%
12,CCc1c(C)sc(NC(=O)C2c3ccccc3Oc3ccccc32)c1C(=O)OC(C)C,inactive: -10.7%
13,CN(C)c1ccc(C2Nc3ccc4ccccc4c3C3=C2C(=O)CC(C)(C)C3)cc1Br (configuration not stated),inactive: -15.5%
14,COc1ccc(CNC(=O)c2cc(-c3ccc(C)c(C)c3)n[nH]2)cc1,inactive: 24.3%
15,CCN(C(=O)c1cc(S(=O)(=O)N2CCc3ccccc32)cn1C)c1cccc(C)c1,inactive: -31.9%
16,CC1=C(C(N)=O)C(c2ccc(F)cc2)n2nc(-c3ccc(N(C)C)cc3)nc2N1 (configuration not stated),inactive: -12.2%
17,CNS(=O)(=O)c1cn(CC(=O)Nc2ccc(C)c(N(C)C)c2)cc1S(=O)(=O)NC,inactive: -12.2%
18,Cc1ccc2c(=O)c(C(=O)c3ccc(F)cc3)cn(CC(=O)NCc3ccccc3Cl)c2n1,inactive: -12.5%
19,Cc1ccc(-c2nn(CC(=O)NC3CCCCC3)c3c2cnc2ccccc23)cc1,inactive: -5.84%
20,Cc1ccc(Cl)cc1N1CCN(C(=O)c2cccn2-c2nnc(N3CCCC3)s2)CC1,inactive: -32.4%
21,Oc1ccc(C(O)CNCCCCCCNCC(O)c2ccc(O)c(O)c2)cc1O (configuration not stated),inactive: -11.6%
22,CC(C)(C)OC(=O)N1CCC(c2c(C(=O)NCc3ccc4c(c3)OCO4)cnn2-c2ccccc2Cl)CC1,inactive: -9.03%
23,CC(C)OP(=O)(CP(=O)(OC(C)C)OC(C)C)OC(C)C,inactive: -2.24%
24,COc1ccc(C(=O)Nc2nnc(S(=O)(=O)N(CC(C)C)c3ccccc3)s2)cc1,inactive: -20.1%

row,SMILES,"activity change, positive = activation"
1,COc1ccc(NC(=O)c2ccc3c(c2)nnn3C2CCCC2)cc1Cl,inactive: -12.2%
2,Cc1ccc(Cn2c(C(=O)O)c(CNCc3cccs3)c3ccc(C)cc32)cc1,inactive: -32.5%
3,Cc1ccc(Cl)cc1NC(=O)c1ccc2snnc2c1,inactive: -16.5%
4,COc1cc(NC(=O)NCCn2nnc3cc(S(=O)(=O)N(C)C)ccc32)cc(OC)c1,inactive: -1.43%
5,Cc1ccc(-n2ncc(C(=O)N3CCN(c4ncccn4)CC3)c2C2CCN(C(=O)OC(C)(C)C)CC2)cc1,inactive: -2.03%
6,Cc1cc(C)cc(N2C(=O)CS(=O)(=O)C23C(=O)N(C)c2ccccc23)c1 (configuration not stated),inactive: -8.43%
7,Cc1nc(-c2ccc(S(=O)(=O)N(C)Cc3ccccc3)cc2)co1,inactive: -6.7%
8,CCn1c2ccccc2c2nnc(N3CCN(c4ccc(OC)cc4)CC3)nc21,inactive: -1.32%
9,CCOC(=O)Cn1nc(C)c(NC(=O)COc2ccc(C)c(C)c2)c1C,inactive: -10.5%
10,CCN(CC)C(=O)CSc1cn(CC(=O)N2CCCCCC2)c2ccccc12,inactive: -10.3%
11,Cc1ccc(NC(=O)C2CCN(c3nc4ccccc4nc3C(F)(F)F)CC2)cc1C,inactive: 2.63%
12,CCCN(CCC)S(=O)(=O)c1ccc(N2CCCCS2(=O)=O)cc1,inactive: 0.129%
13,CCOc1ccc(-n2cc(-c3ccccc3)c3c(NCc4ccc(F)cc4)ncnc32)cc1,inactive: -18.7%
14,COc1cc2ncnc(Nc3cc(Br)c(O)c(Br)c3)c2cc1OC,inactive: -32.1%
15,CCCCCc1ccc(-c2ccc(C(=O)Oc3ccc(C(=O)OC)cc3)cc2)nc1,inactive: -22%
16,COc1ccccc1Nc1c2c(nc3ccc(NC(=O)/C=C/c4cc(OC)c(OC)c(OC)c4)cc13)CCCC2,inactive: -94%
17,COc1ccc(CNc2nc(-c3ccc(Cl)cc3)nn2C(=O)c2ccccc2)cc1,inactive: 1.28%
18,CC(C)c1ccc(NC(=O)C2Cc3ccccc3N2C(=O)c2ccccc2)cc1 (configuration not stated),inactive: -22.4%
19,COc1ccccc1CNC(=O)c1ccc(CSc2nc3ccncc3n2Cc2ccccc2C)cc1,inactive: -22.8%
20,COc1ccc(C2c3c(n(C)c4ccccc34)C(=O)N2CC(=O)Nc2ccccc2Cl)cc1 (configuration not stated),inactive: -24.6%
21,O=C(c1ccc(Nc2nc3ccccc3n3nnnc23)cc1)N1CCN(c2ccc(F)cc2)CC1,inactive: -6.93%
22,COc1cc(NC(=O)c2cc3nc(-c4ccc(C)cc4)cc(C(F)(F)F)n3n2)cc(OC)c1OC,inactive: -24.8%
23,CCc1ccc(NC(=O)c2cc(S(=O)(=O)N3CCCCC3)c[nH]2)cc1,inactive: -4.03%
